Test results: PubChem BioAssay AID504832 (National Center for Advancing Translational Sciences (NCATS), 2011)
“And” between values parts separate entries of the source, which are not always exact repeats. Identical values can stand only once. Screen size: about 310,000 compounds; about 18,000 (5.8%) were called active. The shares of active, inactive and inconclusive entries below differ from those in the screen. Calls follow the shape of the dose curve; as a rule, active = well fitted inhibition curve with a large enough effect; inconclusive = small, poorly fitted or top-dose-only effect, or another doubt; inactive = no such curve, though single readings can be large or run the other way. Potencies beside an inconclusive call are fits to weak or partial responses and may not hold up.
% is scaled to controls: 0 for no effect and ±100 for the full control effect; potency is read from the fitted curve at half-maximal effect; tags tell the direction and shape of the fitted curve.

Experiment: Primary qHTS for delayed death inhibitors of the malarial parasite plastid, 48 hour incubation
Details: P. falciparum luciferase growth in erythrocytes; series mostly up to 28.7 µM
In short: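 First compound was added to culture medium, then infected red cells at 0.1% parasitemia and 2% hematocrit (final). After incubation at 37 C under 5% CO2, luciferase detection reagent was dispensed and light output recorded.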
In the case of CC(C)(C)NC(=O)CSc1nc2ccccc2n1-c1ccccc1, the Potency is reported as inconclusive: 13.1 µM [inhibitor, single point].
With COC(=O)C1=C(C)N(Cc2ccccc2)C(=O)N[C@H]1c1ccc(Br)cc1 the Potency was inconclusive: 18.5 µM [inhibitor, single point].
With CC(=O)Oc1cc2c(C(=O)NCCCN3CCOCC3)c(C)oc2c2ccccc12 the Potency was inconclusive: 14.7 µM [inhibitor, single point].
For Cc1ccc(NC(=O)CN(C)CC(=O)Nc2ccccc2C(=O)Nc2ccccc2)cc1, the Potency was inconclusive: 13.1 µM [inhibitor, single point].
In the case of COc1cc(-c2nnc(CSc3nnc(Nc4ccc(Oc5ccccc5)cc4)s3)o2)cc(OC)c1OC, the Potency is reported as inconclusive: 9.28 µM [inhibitor, partial curve, poor fit].
For Cc1cccc(C(=O)NNC(=O)CCCCC(=O)NNC(=O)c2cccc(C)c2)c1, the activity change, negative = inhibition was inactive: 3.6% [at 0.00184 µM].
In the case of CCOC(=O)c1[nH]c2ccc(OC)cc2c1NC(=O)OC, the Potency is reported as “inactive”.
With COc1ccc(Cl)cc1NC(=S)N1CCC(c2ccc(C)cc2)C1 (stereo not given) the Potency was inconclusive: 10.4 µM [inhibitor, single point].
In the case of Clc1ccc(N2CCNCC2)nn1, the Potency is reported as inconclusive: 0.37 µM [inhibitor, partial curve, poor fit].
For C#CCOCCOCCOCCNc1nc(N2CCN(C(=O)CCCCCCCCCCNC(=O)Cn3cc(CCCCCN)nn3)CC2)nc(N2CCN(C(=O)CCCCCCCCCCNC(=O)[C@H](CO)n3cc(CCCCCN)nn3)CC2)n1, the Potency was active: 1.04 µM.
In the case of CCCC(C(=O)NC1CCCC1)N(C(=O)c1snc(C(N)=O)c1N)c1ccc(OCC)cc1 (stereo not given), the Potency is reported as inconclusive: 10.4 µM [inhibitor, single point].
For c1ccc(-c2[nH]c(-c3ccccc3)[n+](CC3CO3)c2-c2ccccc2)cc1 (stereo not given), the Potency was inconclusive: 10.4 µM [inhibitor, partial curve, poor fit].
For CC(C)(C)C1CCC(OC(=O)C[N+]2(C)CCCCC2)CC1 (stereo not given), the Potency was active: 11.7 µM.
For COc1ccc(OC)c(NC(=O)c2ccc(-c3cccs3)cc2)c1, the Potency was “inactive”.
In the case of CCn1c(SCC(=O)c2cc(C)n(CC3CCCO3)c2C)nc2ccccc21 (stereo not given), the Potency is reported as inconclusive: 10.4 µM [inhibitor, single point].
For CC(=O)c1ccc(S(=O)(=O)Nc2ccc(C(=O)N(C)CC(=O)Nc3cccc(C)c3C)cc2)cc1, the Potency was inconclusive: 20.8 µM [inhibitor, partial curve, poor fit].
With CCC(C)NC(=O)N1c2ccccc2Sc2ccccc21 (stereo not given) the Potency was inconclusive: 18.5 µM [inhibitor, single point].
With Cc1cc(CN(C)C(=O)CC2C(=O)NCCN2Cc2c(F)cccc2Cl)n[nH]1 (stereo not given) the Potency was “inactive”.
For Oc1ccccc1C1CC(c2cccs2)=NC(c2ccc(Cl)cc2)N1 (stereo not given), the Potency was inconclusive: 2.94 µM [inhibitor, full curve, poor fit].
For O=C(NCC(c1ccco1)N1CCCCC1)c1cccc(S(=O)(=O)Nc2ccc(F)cc2)c1 (stereo not given), the Potency was active: 10.4 µM.
With Cc1cc(SCC(=O)N/N=C/c2ccc(O)cc2O)nc2ccccc12 the Potency was inconclusive: 18.5 µM [inhibitor, single point].
For CCc1cc2c(=O)[nH]c(N3CCOCC3)nc2s1, the Potency was “inactive”.
For Cn1c(CO)cnc1SCC(=O)c1ccc(Cl)cc1, the Potency was inconclusive: 13.1 µM [inhibitor, single point].
For CC(C)OC(=O)CSc1nc(N)c(C#N)c(-c2ccco2)c1C#N, the Potency was inconclusive: 18.5 µM [inhibitor, partial curve, poor fit].
With Cc1ccc(-n2nc3c(N4CCC(C(=O)NCCc5ccccc5C)CC4)nnc(C)c3c2C)cc1 the Potency was inconclusive: 10.4 µM [inhibitor, single point].
For O=C(NCC1CCCCC1)c1cccc(S(=O)(=O)N2CCCC2)c1, the Potency was active: 10.4 µM.
With CCCCC1C(=O)N(c2ccccc2)N(c2ccccc2)C1=O the Potency was inconclusive: 16.9 µM [inhibitor, single point] and inconclusive: 11.7 µM [inhibitor, single point].
For COc1ccccc1C(NC(=O)CC(C)C)c1c(O)ccc2ccccc12 (stereo not given), the Potency was inconclusive: 5.22 µM [inhibitor, partial curve, poor fit].
For Cc1ccc(NC(=O)C(c2ccccc2)N2CCN(C(=O)c3ccco3)CC2)cc1 (stereo not given), the Potency was inconclusive: 10.4 µM [inhibitor, single point].
In the case of CN1C(=O)/C(=C/c2ccc(-c3ccccc3[N+](=O)[O-])o2)SC1=Nc1ccc(Cl)c(C(=O)O)c1, the Potency is reported as “inactive”.
In the case of Cc1ccc(S(=O)(=O)N2CCC(C(=O)N[C@@H](C)C(=O)Nc3ccc4c(c3)OCO4)CC2)cc1, the Potency is reported as inconclusive: 9.28 µM [inhibitor, partial curve, poor fit].
With COCCNC(=O)CSCc1c(F)cccc1Cl the Potency was “inactive”.
For Cc1cccc(-c2sc(Nc3ccccc3)n[n+]2-c2ccccc2)c1, the Potency was inconclusive: 13.1 µM [inhibitor, single point].
With O=c1[nH]nc(CNc2ccc(O)cc2)c2ccccc12 the Potency was inconclusive: 18.5 µM [inhibitor, single point].
For COc1cc(/C=C/C(=O)N2CCN(CC(O)COc3ccccc3)CC2)cc(OC)c1OC (stereo not given), the Potency was inconclusive: 10.4 µM [inhibitor, partial curve, poor fit].
For CS(=O)(=O)c1ccc(C(=O)N2CCN(Cc3ccccc3)CC2)cc1, the Potency was “inactive”.
For O=C(Nc1ccccc1C(=O)Nc1nnc(C(F)(F)F)s1)c1ccccc1Cl, the Potency was inconclusive: 9.28 µM [inhibitor, partial curve, poor fit].
In the case of NC1=CC(=O)c2cccc3cccc1c23, the Potency is reported as active: 2.94 µM.
For CC(C)CCNC(=O)c1csc2c1CCCCC2, the Potency was “inactive”.
In the case of Cc1cc(NS(=O)(=O)c2ccc(NC(=O)/C=C/c3ccc(Br)cc3)cc2)no1, the Potency is reported as “inactive”.
With CN1CCN(c2ccc(S(=O)(=O)N3CCCCC3)cc2NC(=O)c2ccc3ccccc3c2)CC1 the Potency was active: 9.28 µM.
With CCCCC(CC)CNC(=O)c1cccs1 (stereo not given) the Potency was active: 5.22 µM.
In the case of CCOc1ccc2nc(C)cc(Nc3ccc4c(c3)OCCO4)c2c1, the Potency is reported as inconclusive: 11.7 µM [inhibitor, single point].
With CSc1nnc2ccc(-c3ccccn3)nn12 the Potency was inconclusive: 1.17 µM [inhibitor, full curve, poor fit].
In the case of CCC(C)NC(=O)CSC1=Nc2ccccc2C2=NC(CC(=O)NCc3ccccc3)C(=O)N12 (stereo not given), the Potency is reported as active: 9.28 µM.
In the case of Cc1ccc(N2C(=O)/C(=C\c3ccco3)SC2=S)cc1, the Potency is reported as inconclusive: 2.08 µM [inhibitor, partial curve].
In the case of COc1ccc(/C=C/C(=O)N(CC(C)C)CC(C)C)cc1Br, the Potency is reported as inconclusive: 13.1 µM [inhibitor, partial curve, poor fit].
With COc1ccc(CNc2nc3ccccc3n2CCN2CCCCC2)c(OC)c1 the Potency was inconclusive: 9.28 µM [inhibitor, partial curve, poor fit].
With O=C(Nc1ccccc1N1CCCCC1)c1ccc(-c2ccc(Cl)cc2)o1 the Potency was inconclusive: 13.1 µM [inhibitor, single point].
In the case of O=c1ccn(Cc2ccccc2)c(=O)n1Cc1ccccc1, the Potency is reported as inconclusive: 0.37 µM [inhibitor, full curve].
For CC1CCCCN1C(=O)CSc1nnc(-c2ccco2)n1CC1CCCO1 (stereo not given), the Potency was inconclusive: 18.5 µM [inhibitor, single point].
For O=C(NC1=NCCS1)c1ccc(Cl)c(S(=O)(=O)N2CCc3ccccc32)c1, the Potency was inconclusive: 8.28 µM [inhibitor, single point].
In the case of NCCCNC(=O)Cn1c(=O)c2c3c(sc2n(Cc2ccccc2)c1=O)CCCC3, the Potency is reported as inconclusive: 13.1 µM [inhibitor, partial curve].
For COc1cc(NC(=O)CSCC(=O)Nc2cccc(C(F)(F)F)c2)c(Cl)cc1Cl, the Potency was inconclusive: 11.7 µM [inhibitor, single point].
In the case of CCCNC(=S)Nc1ccccc1, the Potency is reported as inconclusive: 0.586 µM [inhibitor, partial curve, poor fit].
For CCCn1c2ccccc2c2cnn(CC(=O)N3CCN(C4CCCCC4)CC3)c(=O)c21, the Potency was “inactive”.
In the case of Cc1cc(C)n(/C(=C\N(C)C)C(=O)c2ccc(Cl)cc2)n1, the Potency is reported as inconclusive: 0.828 µM [inhibitor, partial curve, poor fit].
With Cc1cc(C(=O)CN2CCN(CC(=O)Nc3ccc(F)cc3)CC2)c(C)n1C1CC1 the Potency was inconclusive: 13.1 µM [inhibitor, partial curve].
With CN(C1CCS(=O)(=O)C1)S(=O)C12CC3CC(CC(C3)C1)C2 (stereo not given) the Potency was “inactive”.
For O=S(=O)(O)c1cccc2c(N=Nc3ccc(O)c4ncccc34)cccc12, the Potency was inconclusive: 11.7 µM [inhibitor, single point].
For CCOc1ccc(NC(=O)CN(C)C(=O)c2ccccc2OCCOc2ccccc2)cc1OCC, the Potency was “inactive”.
In the case of CC(C)c1cc(NC(=O)c2ccccc2)cc(C(C)C)c1O, the Potency is reported as inconclusive: 13.1 µM [inhibitor, single point].
For N#CC1=C(N)N2C(=C(C#N)C13CCCCC3)SC1CCCCC12O (stereo not given), the Potency was inconclusive: 13.1 µM [inhibitor, single point].
For CC(=O)c1ccc(S(=O)(=O)N2CCN(CC(=O)Nc3ccc(Cl)c([N+](=O)[O-])c3)CC2)cc1, the Potency was inconclusive: 11.7 µM [inhibitor, single point].
For O=C1ON=C(c2ccccc2)/C1=C/c1ccc(-c2ccccc2[N+](=O)[O-])o1, the Potency was inconclusive: 4.15 µM [inhibitor, single point].
